# Data: PubChem BioAssay AID504832 (National Center for Advancing Translational Sciences (NCATS), 2011)
# The campaign covered roughly 310,000 compounds. About 18,000 (5.8%) were called active. Inconclusive results, whose numbers are uncertain, are shown with a selection of clear calls. The call rests on the fitted dose curve; in most records, active means well fitted inhibition curve with a large enough effect; inconclusive means small, poorly fitted or top-dose-only effect, or another doubt; inactive means no such curve, though single readings can be large or run the other way. Potencies of inconclusive entries are left out as doubtful fits.
# Assay: Primary qHTS for delayed death inhibitors of the malarial parasite plastid, 48 hour incubation
# Settings: P. falciparum luciferase growth in erythrocytes; series mostly up to 28.7 µM
# Procedure, shortened: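 First compound was added to culture medium, then infected red cells at 0.1% parasitemia and 2% hematocrit (final). After incubation at 37 C under 5% CO2, luciferase detection reagent was dispensed and light output recorded.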
# Potency means the concentration at half of the fitted maximal effect; tags describe the fitted curve by direction and shape.
row,Compound,Potency
1,Cc1ccccc1Cc1c(C)nc2nc(SCC(=O)NCCCN3CCCC3)nn2c1C,"inconclusive [inhibitor, single point]"
2,Cc1cc(C)c(S(=O)(=O)N2CCCC2CNC(=O)c2ccc3c(c2)OCO3)c(C)c1 (stereo not drawn),"inconclusive [inhibitor, partial curve]"
3,CC1(C)CC(=O)C(C(O)c2cccc([N+](=O)[O-])c2)C(C)(C)N1 (stereo not drawn),"inconclusive [inhibitor, single point]"
4,Cc1ccc(-c2nc3ccc(Cl)cc3n2OC(=O)N(C)C)cc1,"inconclusive [inhibitor, single point]"
5,COc1ccc(S(=O)(=O)N(C)C)cc1NC(=O)COC(=O)c1nn(C)c(=O)c2ccccc12,"inconclusive [inhibitor, partial curve, poor fit]"
6,O=C(N[C@H]1CP(=O)(Oc2ccccc2)O[C@H](COCc2ccccc2)[C@H]1O)C(Cl)(Cl)Cl (stereo partly drawn),"inconclusive [inhibitor, full curve, poor fit]"
7,Cc1ccc(NC(=O)CC2C(=O)N(Cc3ccccc3)C(=S)N2NC(=O)c2cccc(F)c2)c(C)c1 (stereo not drawn),"inconclusive [inhibitor, single point]"
8,CN(C(=O)CCN1C(=O)/C(=C/c2ccccc2F)SC1=S)C1CCS(=O)(=O)C1 (stereo not drawn),"inconclusive [inhibitor, partial curve]"
9,COC(=O)c1cc(OC)c(OC)cc1NC(=O)C(C)Sc1ccc(C)cc1 (stereo not drawn),"inconclusive [inhibitor, single point]"
10,COc1ccc(N2CCN(S(=O)(=O)c3c(C)nc4scc(C)n4c3=O)CC2)cc1,"inconclusive [inhibitor, single point]"
11,CCN(CC(=O)NCc1cccs1)C(=O)c1cccc(S(=O)(=O)NCc2ccccc2)c1,"inconclusive [inhibitor, single point]"
12,COC(=O)[C@@H](NC(=O)Nc1ccc2c(c1)OCCO2)C(C)C,inactive
13,COc1cc(/C=C2\SC(=S)N(CCC(=O)N3CCN(C)CC3)C2=O)cc(OC)c1OC,"inconclusive [inhibitor, partial curve]"
14,Cn1c(CSCc2ccc(Cl)c(Cl)c2)nnc1SCC(=O)Nc1nccs1,"inconclusive [inhibitor, single point]"
15,Cc1ccc(C)c(S(=O)(=O)N2CCCCC2CCNC(=O)C(=O)NCCc2ccco2)c1 (stereo not drawn),"inconclusive [inhibitor, single point]"
16,Cc1c(Cl)cccc1NC(=O)Nc1cc(C(C)(C)C)on1,active: 10.4 µM
17,C/C(=N\NC(=O)c1cc(C)nc2ccccc12)c1ccccn1,active: 3.7 µM
18,Cc1cc(OC(C)C(=O)NCc2ccccn2)c2c(C)c(C)c(=O)oc2c1 (stereo not drawn),"inconclusive [inhibitor, single point]"
19,CC(C)[C@H](NC(=O)[C@@H]1Cc2ccccc2CN1C(=O)OC(C)(C)C)C(=O)NCC1CCCO1 (stereo partly drawn),"inconclusive [inhibitor, single point]"
20,Cc1cc2nn(-c3cccc4ccccc34)nc2cc1N,"inconclusive [inhibitor, single point]"
21,Cc1sc(NC(=O)CN(C(=O)c2ccccc2F)C2CCCC2)c(C(N)=O)c1C,"inconclusive [inhibitor, full curve]"
22,COc1ccc(S(=O)(=O)N(CC(=O)NC2CC3CCC2C3)c2ccccc2OC)cc1 (stereo not drawn),"inconclusive [inhibitor, single point]"
23,COc1ccc(-n2cc(CN(C)Cc3n[nH]c(=O)[nH]3)c(-c3cccc(F)c3)n2)cc1,inactive

row,Compound,Potency
1,Cc1cc(-c2ccc(C)c(S(=O)(=O)N3CCN(c4ccc([N+](=O)[O-])cc4)CC3)c2)on1,"inconclusive [inhibitor, single point]"
2,COc1ccc(Cn2c(=O)[nH]c3cc(C(=O)Nc4ccc(N5CCN(C)CC5)cc4)ccc32)cc1,inactive
3,COc1cc(-c2noc(C)c2/C=C/c2ccc(C(=O)O)cc2)cc(OC)c1OC,"inconclusive [inhibitor, single point]"
4,COc1ccc(OCC(=O)Nc2cccc(-c3nc4ccccc4[nH]3)c2)cc1,"inconclusive [inhibitor, full curve]"
5,COCCn1c(C)cc(C(=O)COC(=O)Cc2n[nH]c(=O)c3ccccc23)c1C,"inconclusive [inhibitor, single point]"
6,COc1cccc(CN(C)CC(=O)Nc2ccccc2C(C)C)c1,"inconclusive [inhibitor, partial curve]"
7,Cc1cccc(C(=O)NC(=S)NNC(=O)c2ccc(Cl)cc2)c1,inactive
8,COc1ccccc1N1CCN(Cc2ccc(-c3ccccc3[N+](=O)[O-])o2)CC1,inactive
9,O=C1NC(=O)C(c2cn(-c3ccccc3)nc2-c2ccc(F)cc2)N1 (stereo not drawn),active: 4.65 µM
10,O=C(Nc1ccc2c(c1)OCO2)c1cccc(S(=O)(=O)N2CCCC2)c1,inactive
11,CCOC(=O)N1CCN(C2CCCN(C(=O)c3cccc(N(C)C)c3)C2)CC1 (stereo not drawn),inactive
12,CCCCN(C/C=C/c1ccccc1OC)Cc1ccccc1,"inconclusive [inhibitor, full curve, poor fit]"
13,c1ccc(Nc2nc(N3CCCCC3)nc(N3CCNCC3)n2)cc1,"inconclusive [inhibitor, single point]"
14,O=C1CCCN1CCC12CC3CC(CC(C3)C1)C2,"inconclusive [inhibitor, partial curve, poor fit]"
15,CCOC(=O)N1CCC(N(CCCOC)C(=O)Nc2ccc(CC)cc2)CC1,"inconclusive [inhibitor, single point]"
16,Cc1[nH]n(C)c(=O)c1N=Nc1ccc(S(C)(=O)=O)cc1,"inconclusive [inhibitor, single point]"
17,OCc1ccnc2c(O)cccc12,active: 2.33 µM
18,Cc1cccc(C)c1NC(=O)CSc1nnc(-c2ccoc2C)n1CCc1ccccc1,"inconclusive [inhibitor, single point]"
19,O=C(c1ccoc1)N1CCC2(CC1)Oc1ccc(Cl)cc1C(=O)C21CC(c2ccccc2)=NO1 (stereo not drawn),active: 14.7 µM
20,CCOC(=O)C1CCN(C(=O)C(CC)c2ccccc2)CC1 (stereo not drawn),inactive
21,Cc1cc(N2C(=O)C3CC=CC(C)C3C2=O)no1 (stereo not drawn),inactive
22,Cc1ccc(-n2c(SC3CCOC3=O)nc3ccccc3c2=O)cc1 (stereo not drawn),inactive
23,CCC(Sc1nnc(-c2ccco2)n1C)C(=O)Nc1nnc(C)s1 (stereo not drawn),inactive

row,Compound,Potency
1,Oc1ccc(-c2n[nH]c(=S)n2Cc2ccccc2)cc1,inactive
2,Cc1cc[n+](-c2[nH]c(=O)sc2/C=N/N=C(\[O-])c2ccncc2)cc1C,inactive
3,COc1ccc(CN(C)Cc2cc(=O)oc3cc(C)c(C(C)C)cc23)cc1OC,"inconclusive [inhibitor, single point]"
4,O=[N+]([O-])c1ccc(O)c2cccnc12,inactive
5,COc1ccc(CN(C)C(=O)/C=C/c2ccc(S(=O)(=O)N3CCOCC3)cc2)cc1F,active: 11.7 µM
6,Cc1c(NC(=O)CCCOc2ccccc2)cccc1[N+](=O)[O-],"inconclusive [inhibitor, partial curve, poor fit]"
7,Cc1ccc(/C=c2\sc3nc(-c4ccco4)nn3c2=O)o1,inactive
8,Nc1c(C(=O)CSc2nccn2-c2cccc(F)c2)c(=O)[nH]c(=O)n1C1CC1,"inconclusive [inhibitor, single point]"
9,Cc1c(C)c2ccc(OCC(=O)NCCc3c[nH]c4ccccc34)c(C)c2oc1=O,"inconclusive [inhibitor, single point]"
10,O=C(C(Sc1ccccc1)c1ccccc1)N1CCN(c2ccccc2)CC1 (stereo not drawn),"inconclusive [inhibitor, single point]"
11,Cc1ccc2nc(/C(C#N)=C/c3ccc(-c4ccccc4C(=O)O)o3)[nH]c2c1,inactive
12,COc1ccc(NC(=O)C2CCN(S(=O)(=O)c3ccc(N4CCCC4=O)cc3)CC2)c(OC)c1,"inconclusive [inhibitor, partial curve]"
13,O=C(O)CCCN1C(=O)/C(=C/c2ccncc2)SC1=S,"inconclusive [inhibitor, single point]"
14,Cc1ccc(CCNC(=O)c2cc(-c3ccncc3)nc3ccc(S(=O)(=O)N4CCOCC4)cc23)cc1,"inconclusive [inhibitor, partial curve]"
15,C=C(C)CNC(=S)Nc1cccc(S(=O)(=O)NC2=NCCC2)c1,inactive
16,CSC(=Nc1ccccc1)C(C#N)c1nc2ccccc2[nH]1 (stereo not drawn),"inconclusive [inhibitor, single point]"
17,COC(=O)c1ccc(S(=O)(=O)NCc2ccco2)n1C,inactive
18,CN(CC(=O)Nc1ccccc1C(F)(F)F)C(=O)COc1ccccc1Cc1ccccc1,"inconclusive [inhibitor, partial curve, poor fit]"
19,C=CCn1c(COc2ccccc2OC)nc2ccccc21,"inconclusive [inhibitor, partial curve, poor fit]"
20,S=c1nc[nH]c2c1ncn2C1CCCC1,inactive
21,O=C(NCc1cccnc1)C(=O)NCC1OCCCN1S(=O)(=O)c1ccc(Cl)cc1 (stereo not drawn),"inconclusive [inhibitor, single point]"
22,CCCCn1c(N)c(N(CC)C(=O)c2ccc(N(C)S(=O)(=O)c3ccc(C)cc3)cc2)c(=O)[nH]c1=O,"inconclusive [inhibitor, single point]"
